Measurements as given in PubChem BioAssay AID488969 (Vanderbilt High Throughput Screening Facility, 2010).
The full ranking holds about 110,000 compounds; the median of “z-score” is about -0.1, and the highest 2% start at about 2. The list shows a part of the results. Activity calls are given as the source filed them.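 Rule for the calls: active = z-score in the third read window above 3 or below -3; inactive = the rest.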

Target: Metabotropic glutamate receptor 8 (Rattus norvegicus) (UniProt P70579)
Sequence of UniProt P70579 (P70579 whole entry, looked up): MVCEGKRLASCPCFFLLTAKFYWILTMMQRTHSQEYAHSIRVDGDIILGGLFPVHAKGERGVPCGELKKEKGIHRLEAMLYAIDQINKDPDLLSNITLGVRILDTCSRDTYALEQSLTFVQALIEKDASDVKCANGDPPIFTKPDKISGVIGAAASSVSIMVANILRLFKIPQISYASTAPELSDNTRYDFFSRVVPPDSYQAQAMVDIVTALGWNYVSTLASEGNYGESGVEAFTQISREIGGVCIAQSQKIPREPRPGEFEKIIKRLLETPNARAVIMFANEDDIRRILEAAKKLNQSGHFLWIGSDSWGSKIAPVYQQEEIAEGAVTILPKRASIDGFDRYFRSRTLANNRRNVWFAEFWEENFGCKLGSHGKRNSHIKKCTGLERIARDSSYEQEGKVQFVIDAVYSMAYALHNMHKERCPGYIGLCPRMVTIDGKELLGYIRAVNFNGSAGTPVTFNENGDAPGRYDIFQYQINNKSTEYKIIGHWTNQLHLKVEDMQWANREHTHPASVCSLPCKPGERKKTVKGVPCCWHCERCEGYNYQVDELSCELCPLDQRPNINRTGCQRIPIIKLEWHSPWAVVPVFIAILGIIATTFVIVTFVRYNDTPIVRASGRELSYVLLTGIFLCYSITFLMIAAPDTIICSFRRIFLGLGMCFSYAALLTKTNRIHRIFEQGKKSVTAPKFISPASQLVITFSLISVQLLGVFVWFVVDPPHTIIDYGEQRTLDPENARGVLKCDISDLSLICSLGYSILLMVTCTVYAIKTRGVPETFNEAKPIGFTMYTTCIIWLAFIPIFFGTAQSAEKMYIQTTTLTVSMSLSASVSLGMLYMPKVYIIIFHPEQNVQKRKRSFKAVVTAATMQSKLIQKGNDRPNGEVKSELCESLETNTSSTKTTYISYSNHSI
Test: mGluR8 Gi/Go-coupled signaling modulation – cell-based, rat, thallium flux, HTS, primary screen (AID 488969)
Settings: HEK293 rat mGluR8, GIRK (G protein-gated inwardly rectifying potassium channel) thallium flux, FluoZin2; at 10 µM; stronger effect = higher value; submaximal glutamate (EC20) added with thallium

| SMILES | z-score |
| --- | --- |
| Cn1cc(Cl)c(C(=O)NC2CCCCCC2)n1 | -0.0961 |
| CCCc1nnc(NC(=O)CC(=O)Nc2ccccc2C(=O)O)s1 | 0.243 |
| N/C(CN1CCCC1=O)=N\O | 0.169 |
| Cc1cc(NS(=O)(=O)c2cccs2)no1 | 0.12 |
| COc1cccc(/C(O)=C2/C(=O)C(=O)N(CCN(C)C)C2c2ccccn2)c1 (configuration not stated) | -0.249 |
| Cc1ccc(C(=O)O)cc1NC(=S)NC(=O)Cc1ccccc1 | 0.287 |
| CC1CC(OCC(O)CN2CCN(Cc3ccccc3)CC2)CC(C)(C)C1 (configuration not stated) | 0.26 |
| COc1ccc(-c2ccc(-c3noc(C(C)C)n3)c(OC)n2)cc1 | -0.502 |
| CN=C1S/C(=C\c2ccc(Sc3ccc(Cl)cc3)o2)C(=O)N1C | -0.579 |
| CCOC(=O)CSC1=C(C#N)C(=O)NC(c2ccc(OC)cc2)S1 (configuration not stated) | 0.083 |
| Cc1c(NC(=S)NC(=O)Cc2ccccc2)cccc1C(=O)O | 0.11 |
| c1ccc2c(c1)nc1n2CCN1 | -0.158 |
| O=C(O)CCc1ccc(-c2ccc(Cl)cc2)o1 | -0.193 |
| Cc1cc(C)n(-c2cc(N3CCN(C(=O)c4cccc(Br)c4)CC3)ccc2[N+](=O)[O-])n1 | -0.73 |
| CC(=O)NC(=S)Nc1sc2c(c1C#N)CCCCC2 | -0.116 |
| COc1ccc2c(c1)c(=O)cc(-c1ccccc1)n2C | -0.0758 |
| Cc1ccc(C2NC(=O)NC(O)(C(F)(F)F)C2C(=O)c2ccccc2)o1 (configuration not stated) | -0.198 |
| CCn1c(SCC(=O)c2ccc(Cl)s2)nnc1-c1cccs1 | -0.755 |
| CC(c1ccccc1)n1cc(C(=O)NCc2cccnc2)nn1 (configuration not stated) | -0.351 |
| Clc1ccccc1-c1nc2nc3ccccc3nc2n1-c1ccc2c(c1)OCO2 | -0.429 |
| CCOc1cc(C(=O)NCC(C)CN(C)C)cc(OCC)c1OCC (configuration not stated) | 0.122 |
| Cc1ccc2nc(C)c(C(=O)N/N=C/c3ccccc3[N+](=O)[O-])cc2c1 | -0.334 |
| CCCNC(=O)/C=C/c1ccc(C(C)C)cc1 | -0.258 |

| SMILES | z-score |
| --- | --- |
| Cc1ccc(Cc2cnc(NC(=O)c3ccco3)s2)cc1 | -0.555 |
| Cc1ccc(C2(C)NC(=O)N(CC(=O)NC(=O)NC3CCCC3)C2=O)cc1 (configuration not stated) | -0.423 |
| FC(F)(F)COc1nc(OCC(F)(F)F)nc(N2CCN(c3ccccc3)CC2)n1 | -0.193 |
| O=C(Nc1nnc(-c2ccccc2Cl)s1)C1CCN(S(=O)(=O)c2ccc(Cl)cc2)CC1 | -0.105 |
| CC(C)CC(C(=O)Nn1cnnc1)N1C(=O)c2ccccc2C1=O (configuration not stated) | -0.247 |
| COc1ccc(OC)c(NC(=O)c2[nH]c(C)c(C(C)=O)c2C)c1 | 0.219 |
| COc1cccc(C(C#N)N2CCCCC2)c1O (configuration not stated) | -0.0959 |
| Cc1ccc(N2CN(Cc3ccco3)CNC2=S)c(C)c1 | -0.116 |
| O=C(C1CCCO1)N1CCN(c2ncccn2)CC1 (configuration not stated) | 0.975 |
| CCN(C(=O)CSc1nnc2c3ccccc3n(CC)c2n1)C1CCS(=O)(=O)C1 (configuration not stated) | -0.214 |
| CCOc1ccc(-n2c(C)nc3cc(C(=O)NCc4ccco4)ccc32)cc1 | 0.364 |
| Cc1cc(C(=O)N2CCN(c3ncccn3)CC2)sc1-c1ccccc1 | -0.488 |
| COCCCNCCCCOc1ccccc1-c1ccccc1 | 0.319 |
| CCOC(=O)C(O)(CCC(O)(C(=O)OCC)C(=O)OCC)C(=O)OCC | 0.0508 |
| NC(=O)c1c(C(F)(F)F)cc(-c2ccccc2)nc1NCCO | -0.157 |
| CC(C)(C)NC(=O)C(c1ccsc1)N(CCc1ccccc1)C(=O)Cn1nnc2ccccc21 (configuration not stated) | -0.173 |
| CCOC(=O)c1ccc2c(c1)nc(SCC(=O)c1ccco1)n2CC | -0.142 |
| CC(=O)Nc1cc(C(=O)OCC(=O)c2ccc(Cl)cc2Cl)ccc1C | 0.0985 |
| Cc1ccc(C)c(OCC(=O)Nc2ccc(S(=O)(=O)Nc3ccccn3)cc2)c1 | -0.116 |
| CC(C)NC(=O)COC(=O)CNC(=O)c1cc(Cl)cc([N+](=O)[O-])c1 | -0.346 |
| CCC(C)(C)n1nnnc1C(c1ccc(C)cc1)N1CCN(Cc2ccc3c(c2)OCO3)CC1 (configuration not stated) | 0.434 |
| CC1CN(C(=O)c2cnn3c(C(F)F)cc(-c4ccccc4)nc23)CC(C)O1 (configuration not stated) | -0.152 |
| O=C1CN(C(=O)CSc2nc3ccccc3c(=O)n2Cc2ccc(F)cc2)c2ccccc2N1 | active: 3.79 |

| SMILES | z-score |
| --- | --- |
| COc1cccc(N2C(N)=NC(N)=NC2(C)C)c1 | -0.232 |
| COc1ccc(NC(=O)C(NC(C)=O)C(=O)NCc2ccccc2OC)cc1 (configuration not stated) | -0.0786 |
| O=C(NCCCCCCCCCNC(=O)C(F)(F)F)C(F)(F)F | 0.183 |
| CCCCCNc1nc2ccccc2nc1NS(=O)(=O)c1cccs1 | -0.306 |
| C/C(=N/NC(=O)c1cc(C(C)C)[nH]n1)c1cccs1 | -0.349 |
| COCCNS(=O)(=O)c1cccn1-c1ncc(C(F)(F)F)cc1Cl | -0.124 |
| COC(=O)c1cccc(NC(=O)Nc2ccc(Cl)c(Cl)c2)c1 | -0.235 |
| CCC1(CC)N([O-])C(C)=C(c2ccccc2)[N+]1=O | -0.141 |
| CN(CC(=O)Nc1nc2ccccc2s1)S(=O)(=O)c1ccc(Cl)cc1 | 1.52 |
| O=C(Cc1ccc(F)cc1)Nc1cccc2cccnc12 | -0.309 |
| CN(CC(=O)Nc1cccnc1)S(=O)(=O)c1ccccc1 | -0.0827 |
| CCC(C)(C)C1CCC(=NNS(=O)(=O)c2ccc(C)c([N+](=O)[O-])c2)CC1 (configuration not stated) | -0.725 |
| CC(C)(C)C(=O)N1CCC(O)(CS(=O)(=O)Cc2ccccc2Cl)CC1 | 0.0412 |
| Cc1ccc(NC(=S)NC(=O)c2ccc(-c3ccccc3)cc2)c(C)c1 | 0.373 |
| CCCC(=O)Nn1cnc2c(c1=O)C1(CCCCC1)Cc1ccccc1-2 | -1.17 |
| C=CCOc1ccc(Oc2cc(C)nc(SC)n2)nn1 | -0.1 |
| O=C(CN1CCN(Cc2ccccc2F)C1=O)NCc1ccco1 | -0.159 |
| O=S(=O)(c1ccc(Sc2nnc3ccccn23)nc1)N1CCOCC1 | -0.242 |
| CS(=O)(=O)N1CCN(c2ccccc2NC(=O)Cc2ccccc2)CC1 | 0.395 |
| Clc1ccc(-n2ncc3c(NCCCn4ccnc4)ncnc32)cc1 | 0.106 |
| CN(C1CCS(=O)(=O)C1)S(=O)(=O)c1ccc(C2CCCCC2)cc1 (configuration not stated) | 0.314 |
| COC(=O)c1cc(C(=O)OC)n(Cc2ccc(Br)cc2)n1 | -0.538 |
| CC(OC(=O)CCN1C(=O)c2cccc([N+](=O)[O-])c2C1=O)C(=O)Nc1cc(Cl)cc(Cl)c1 (configuration not stated) | -0.338 |

| SMILES | z-score |
| --- | --- |
| CC1(C)Cc2c(C#N)c(N3CCN(C(=O)c4ccccc4)CC3)nc(-c3ccco3)c2CS1 | -0.316 |
| O=C(CCc1ccccc1)Nc1cc(C(F)(F)F)ccc1Cl | -0.45 |
| CCCS(=O)(=O)N1CCC(C(=O)NCCCOC)CC1 | -0.0448 |
| Nc1ccc(C(=O)Nc2ccc(OC(F)(F)C(F)F)c(NC(=O)c3ccc(N)cc3)c2)cc1 | -0.219 |
| CCOC(=O)C1=C(C)NC(=S)NC1c1ccc(-c2cccc(Cl)c2C)o1 (configuration not stated) | -0.0797 |
| C/C(=N\NS(=O)(=O)c1ccccc1)c1cccc(NC(=O)c2cccc(Cl)c2)c1 | -0.0447 |
| COc1ccc(S(=O)(=O)Nc2cc(C)ccn2)cc1OC | 0.0856 |
| C=CCOc1ccc(C(=O)NC2CCCCC2)cc1 | -0.0969 |
| CC(NC(=O)Nc1nnc(C(F)(F)F)s1)N1C(=O)C2C3C=CC(C3)C2C1=O (configuration not stated) | 0.0447 |
| Cc1ccc(NS(=O)(=O)c2ccc(Cl)c(NC(=S)NC(=O)C3CCCCC3)c2)cc1Cl | 0.508 |
| Cc1ccc(CNC(=O)C2CCN(S(=O)(=O)c3cccs3)CC2)o1 | 0.486 |
| CCc1ccccc1NC(=O)CSc1nnc(-c2ccco2)n1N | -0.154 |
| COc1cccc(OC)c1C(=O)N1CCN(Cc2ccc3c(c2)OCO3)CC1 | 0.242 |
| Cc1ccc2nc(-c3cccc(N)c3)[nH]c2c1 | -0.0989 |
| O=S(=O)(NCc1cccnc1)c1cccc2cccnc12 | -0.0796 |
| Cc1ccc(S(=O)(=O)NC2=NCN(CCOC(=O)c3ccc([N+](=O)[O-])cc3)CN2)cc1 | -0.21 |
| COc1ccc(/C=C/C(=O)c2ccc3c4c(cccc24)CC3)cc1OC | -0.107 |
| O=C(CSc1nnnn1-c1ccccc1F)Nc1nc2ccccc2s1 | -0.104 |
| COc1cccc(-c2ccc(C#N)c(SCC(=O)NCCc3ccccc3)n2)c1 | -0.178 |
| COc1ccc2c(c1)CCc1c(C(=O)NCc3ccc(Cl)cc3)noc1-2 | -0.0809 |
| CC1(C)Cc2nc3oc4c(=O)n(CC(=O)Nc5ccccc5)cnc4c3cc2CO1 | 0.0779 |
| C=CCNc1nc(Cl)ncc1F | -0.289 |
| Cc1ccc(C(=O)NCc2ccco2)cc1S(=O)(=O)N1CCCCC1 | 0.0491 |

| SMILES | z-score |
| --- | --- |
| Cc1ccc(C(C(=O)NC2CCCC2)N(C(=O)CNC(=O)c2cccs2)c2cccnc2)o1 (configuration not stated) | -0.492 |
| CCOC(=O)c1sc(NC(=O)c2ccc(S(=O)(=O)N(CC)CC)cc2)nc1C | 0.157 |
| O=C(Cc1cn(Cc2cccc(Cl)c2)c2ccccc12)N1CCCCCC1 | -0.135 |
| O=C(O)C1CCCN1S(=O)(=O)c1cccs1 (configuration not stated) | -0.248 |
| COc1ccc(NC(=O)c2sc(N3CCOCC3)nc2-c2ccccc2)c(OC)c1 | -0.171 |
| CCCCCCC1CCC(C(=O)Nn2c(C)nc3ccccc3c2=O)CC1 (configuration not stated) | -0.122 |
| Cc1ccccc1N1C(=O)C2ON(c3ccccc3)C(c3ccncc3)C2C1=O (configuration not stated) | 0.333 |
| c1ccc(-c2ccccc2OCCn2cncn2)cc1 | -0.2 |
| O=C(CNCC1CCCCC1)Nc1ccccc1N1CCCCC1 | 0.155 |
| COc1cc(CC(=O)Nc2ncc(C)s2)cc(OC)c1OC | 0.453 |
| O=C(Nc1ccc2c(c1)OCO2)c1ccc(S(=O)(=O)NCC2CCCO2)cc1 (configuration not stated) | -0.247 |
| CCOc1cc(/C=N\O)cc(Cl)c1OCC | -0.425 |
| O=C(Cc1ccccc1)NCC(=O)OCC(=O)c1ccc(Cl)c([N+](=O)[O-])c1 | -0.0417 |
| Cc1ccc(S(=O)(=O)N2CCCC2C(=O)OCc2ccco2)cc1 (configuration not stated) | 0.122 |
| O=S(=O)(Cc1ccccc1)N1CCCCC1 | -0.342 |
| COc1cc(O)c(CCC(=O)c2cc(OC)c(OC)c(OC)c2)c(OC)c1 | -0.0311 |
| CCC(=O)Nc1c(C)c(CC)nc2ccccc12 | -0.158 |
| Nc1nc(CSc2ncn(-c3ccccc3)n2)cs1 | -0.194 |
| Nc1ccccc1OCP(=O)(c1ccccc1)c1ccccc1 | -0.151 |
| COc1ncnc2c1sc1nc(-c3ccccc3)c3c(c12)CCCC3 | -0.0945 |
